# According to the supplement of paper PMC6135742:
# Where a name gives a salt, the structure may show the parent alone. ± gives the standard deviation of the averaged measurements. The full ranking holds about 2,600 compounds; the median of “MBP+ mature oligodendrocyte number relative to DMSO vehicle control” is about -0.34, and the highest 2% start at about 13. Some of the results follow.
# Test system: jimpy (Plp1 jimpy) mouse iPSC-derived oligodendrocyte progenitor cells
# Assay: MBP+ mature oligodendrocyte number relative to DMSO vehicle control (SDs above negative control mean); higher = more surviving jimpy oligodendrocytes (rescue)
# Details: 10 µM; 3 days
# Description: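 Primary phenotypic screen of >3,000 bioactive compounds (Selleck L1700 and Sigma LO1280 libraries) at a single dose of 10 µM. Compounds were added to jimpy (Plp1 mutant) mouse iPSC-derived OPCs at the start of thyroid hormone-induced oligodendrocyte differentiation, one well per compound in 384-well plates. After 3 days cells were stained for MBP, Sox10 and DAPI and imaged with an Operetta system. MBP+ oligodendrocyte number and total cell number were expressed as the number of SDs above the mean of the DMSO negative control on the same plate (n=16 control wells per plate). Hits were defined as >=4 SD for oligodendrocytes and >=2 SD for total cells.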
row,SMILES,MBP+ mature oligodendrocyte number
1,Cc1cc(SCc2sc(-c3ccc(C(F)(F)F)c(F)c3)nc2C)ccc1OCC(=O)O,6.98
2,CC(C)(C)[C@]1(O)CC2OC(=O)CC23C(=O)OC2OC(=O)[C@H](O)C231 (some centres not stated) [Bilobalide],-0.444
3,Cc1ccc(S(=O)(=O)N[C@@H](CCCCN)C(=O)CCl)cc1 [Na-p-Tosyl-L-lysine chloromethyl ketone hydrochloride],-1.25
4,CCCN1CCC[C@@H](c2cccc(O)c2)C1 [S(-)-3PPP hydrochloride],-0.997
5,O=C(Oc1ccc([N+](=O)[O-])cc1)N1CCC(C(O)(c2ccc3c(c2)OCO3)c2ccc3c(c2)OCO3)CC1,6.91
6,O=C1CCC[C@@H]2[C@H]3CCCN4CCC[C@@H](CN12)[C@@H]34 [(+)-Matrine],6.66
7,CCNC(=O)[C@H]1O[C@@H](n2cnc3c(N)ncnc32)[C@H](O)[C@@H]1O [5'-N-Ethylcarboxamidoadenosine],-1.9
8,COc1cc2c(cc1OC)C1CC(=O)C(CC(C)C)CN1CC2 (configuration not stated) [Tetrabenazine],1.68
9,Cc1cccc(C)c1NC1=NCCCS1 [Xylazine hydrochloride],-0.747
10,Cc1cccc(C)c1NC1=NCCCS1 [Xylazine HCl],0.283
11,CN1CC[C@@]2(C)c3cc(OC(=O)Nc4ccccc4)ccc3N(C)[C@@H]12 [Phenserine],1.5
12,N#CCCN [3-Aminopropionitrile fumarate],-0.59
13,Oc1ccc2c3c1O[C@H]1c4oc5ccccc5c4C[C@@]4(O)[C@@H](C2)N(CC2CC2)CC[C@]314 [Naltriben methanesulfonate],-3.19
14,O=P1(NCCCl)OCCCN1CCCl (configuration not stated) [Ifosfamide],-0.327
15,NC(=O)CN1CCCC1=O [Piracetam],0.172 ± 1.6
16,CC(=O)NBr [N-Bromoacetamide],-0.668
17,Cc1c2ccncc2c(C)c2c1[nH]c1ccccc12 [Ellipticine],< -4.47
18,CC(C)NP(=O)(NC(C)C)OP(=O)(NC(C)C)NC(C)C [Tetraisopropyl pyrophosphoramide],-0.0327
19,CC(=O)OCC1=C(C(=O)O)N2C(=O)[C@@H](N)[C@H]2SC1 [7-Aminocephalosporanic acid],2.63
20,C=C(C)[C@@H]1[C@H]2OC(=O)[C@@H]1[C@]1(O)C[C@H]3OC34C(=O)O[C@H]2[C@@]41C.CC(C)(O)[C@@H]1[C@H]2OC(=O)[C@@H]1[C@]1(O)C[C@H]3OC34C(=O)O[C@H]2[C@@]41C (some centres not stated) [Picrotoxin],-1.26
21,CCCN(CCC)[C@@H]1CCc2cccc(O)c2C1 [R-(+)-8-Hydroxy-DPAT hydrobromide],-1.22
22,C#CCN[C@H](C)Cc1ccccc1 [R-(-)-Desmethyldeprenyl hydrochloride],1.44
23,CC(=O)OC12COC1CC(O)C1(C)C(=O)C(O)C3=C(C)C(O)CC(O)(C(OC(=O)c4ccccc4)C21)C3(C)C (configuration not stated) [10-Deacetylbaccatin-III],-2.51
24,"CCCN1CCc2cc(O)cc3c2[C@H]1Cc1ccc(O)c(O)c1-3 [R(-)-2,10,11-Trihydroxy-N-propylnoraporphine hydrobromide]",-3.11

row,SMILES,MBP+ mature oligodendrocyte number
1,C#C[C@]1(O)C=C[C@H]2[C@@H]3CCC4=CC(=O)CC[C@@H]4[C@H]3CC[C@@]21CC [Gestodene],3.51
2,CN(c1nc2ccccc2s1)C1CCN(C[C@H](O)COc2ccc(F)c(F)c2)CC1 [Lubeluzole dihydrochloride],6.93
3,CC(C)(C)NCC(O)c1ccccc1Cl (configuration not stated) [Tulobuterol hydrochloride],-1.5
4,CC1(C(=O)O)C2CCC(O2)C1(C)C(=O)O (configuration not stated) [Cantharidic Acid],-3.3
5,Cc1cccc([C@H](C)c2c[nH]cn2)c1C [Dexmedetomidine],1.69
6,COc1cc([C@@H]2c3cc4c(cc3[C@H](O)[C@H]3COC(=O)[C@H]23)OCO4)cc(OC)c1OC [Podophyllotoxin],< -3.97
7,CC[C@H]1CN2CCc3cc(OC)c(OC)cc3[C@@H]2C[C@@H]1C[C@H]1NCCc2cc(OC)c(OC)cc21 [Emetine dihydrochloride hydrate],-4.41
8,C[C@@H]1CC[C@H]2[C@@H](C)C(=O)O[C@@H]3O[C@@]4(C)CC[C@@H]1[C@]32OO4 [Artemisinin],-0.589
9,CS(=N)(=O)CC[C@H](N)C(=O)O (stereo partly drawn) [L-Methionine sulfoximine],-0.794
10,CCC1(c2cccc(O)c2)CCCCN(C)C1 (configuration not stated) [Meptazinol HCl],-1.01
11,"Ic1ccccc1CNC1C2CCN(CC2)C1C(c1ccccc1)c1ccccc1 [L-703,606 oxalate salt hydrate]",< -3.97
12,CCCN(CCC)CCc1ccc(O)c(O)c1 [Dipropyldopamine hydrobromide],-1.64
13,CCC(COC(=O)c1cc(OC)c(OC)c(OC)c1)(c1ccccc1)N(C)C (configuration not stated) [Trimebutine],10.8
14,C/C=C(\C)C(=O)N[C@@H](c1ccccc1)[C@@H](O)C(=O)O[C@H]1C[C@@]2(O)[C@@H](OC(=O)c3ccccc3)[C@@H]3[C@]4(OC(C)=O)CO[C@@H]4C[C@H](O)[C@@]3(C)C(=O)[C@H](OC(C)=O)C(=C1C)C2(C)C [Cephalomannine],-2.96
15,NCCc1c[nH]c2ccc(O)cc12 [Serotonin HCl],-1.54
16,NCCc1c[nH]c2ccc(O)cc12 [Serotonin hydrochloride],-1.33
17,COc1ccc(C(CN(C)C)C2(O)CCCCC2)cc1 (configuration not stated) [Venlafaxine hydrochloride],-0.753
18,COc1ccc(C(CN(C)C)C2(O)CCCCC2)cc1 (configuration not stated) [Venlafaxine],1.33
19,CN(C)C(=O)Oc1cccc([N+](C)(C)C)c1 [Neostigmine bromide],0.0294
20,CNC(=O)Oc1ccc2c(c1)[C@]1(C)CCN(C)[C@@H]1N2C [(-)-Physostigmine],-0.387
21,"CC(N)c1cccc(Cl)c1Cl (racemic) [(±)-2,3-Dichloro-alpha-methylbenzylamine hydrochloride]",-1.28
22,Cc1sc2c(c1C)C(c1ccc(Cl)cc1)=N[C@@H](CC(=O)Nc1ccc(O)cc1)c1nnc(C)n1-2,-4.64
23,CCc1c(C(=O)C(N)=O)c2c(OCC(=O)O)cccc2n1Cc1ccccc1,-1.55
24,CCC1=C[C@H]2CN3CCc4c([nH]c5ccccc45)[C@](C(=O)OC)(C2)[C@H]13 [Catharanthine],0.422

row,SMILES,MBP+ mature oligodendrocyte number
1,C#CCOC(=O)C1=CCCN(C)C1 [Arecaidine propargyl ester hydrobromide],0.824
2,CNCC(O)c1ccc(O)cc1 (configuration not stated) [Synephrine HCl],-0.332
3,CNCC(O)c1ccc(O)cc1 (configuration not stated) [Synephrine],0.451
4,CN1[C@@H]2CC[C@H]1C[C@@H](OC(=O)C(CO)c1ccccc1)C2 (some centres not stated) [Atropine],-1.28
5,CN1[C@@H]2CC[C@H]1C[C@@H](OC(=O)C(CO)c1ccccc1)C2 (some centres not stated) [Atropine sulfate],2.28
6,CCOc1ccccc1-n1c(C(C)N2CCN(C(=O)COc3ccc(Cl)cc3)CC2)nc2ccccc2c1=O (configuration not stated) [Erastin],-0.0158
7,CC(C)C[C@H]1C(=O)N2CCC[C@H]2[C@]2(O)O[C@](NC(=O)[C@@H]3C=C4c5cccc6[nH]c(Br)c(c56)C[C@H]4N(C)C3)(C(C)C)C(=O)N12 [(+)-Bromocriptine methanesulfonate],-2.83
8,COc1cc(C(O)CN)ccc1O (racemic) [(±)-Normetanephrine hydrochloride],-1.19
9,C[C@]12CCC(=O)C(O)=C1CC[C@@H]1[C@@H]2CC[C@]2(C)C(=O)CC[C@@H]12 [Formestane],-0.276
10,c1ccc(C2CC2)c(OCC2=NCCN2)c1 [Cirazoline hydrochloride],1.13
11,CN1[C@@H]2CC[C@H]1C[C@@H](OC(c1ccccc1)c1ccccc1N)C2 (some centres not stated) [Aminobenztropine],-0.825
12,N#C[C@H](O[C@@H]1O[C@H](C(=O)O)[C@@H](O)[C@H](O)[C@H]1O)c1ccccc1 [Laetrile],1.29
13,NCC(CP(=O)(O)O)c1ccc(Cl)cc1 (configuration not stated) [Phaclofen],1.11
14,O=S1(=O)N(CCN2CC=C(c3c[nH]c4cc(F)ccc34)CC2)c2cccc3c2N1CCC3,3.87
15,CCN(CC)C(=O)c1ccc(C2=CC3(CCNCC3)Oc3cccc(O)c32)cc1,-0.676
16,CN1[C@@H]2C[C@@H](OC(=O)[C@H](CO)c3ccccc3)C[C@H]1[C@H](O)C2 (racemic) [(+/-)-Anisodamine],-1.33
17,"Clc1ccc(N2CCN(Cc3c[nH]c4ncccc34)CC2)cc1 [L-745,870 hydrochloride]",-3.38
18,NCCCNCCSP(=O)(O)O [Amifostine],-0.433
19,O=c1[nH]c2ccc(Cl)cc2c(N[C@@H]2CN3CCC2CC3)c1-c1nc2ccccc2[nH]1,< -6.01
20,NCCc1c[nH]c2ccc(C(N)=O)cc12 [5-Carboxamidotryptamine maleate],-0.125
21,C[C@@H]1[C@H](O)[C@@H](C)/C=C/C=C/CC/C=C/C=C/C=C/C=C/[C@H](O[C@H]2O[C@@H](C)[C@H](O)[C@@H](N)[C@H]2O)C[C@@H]2O[C@](O)(C[C@@H](O)[C@H](O)CC[C@@H](O)C[C@@H](O)C[C@@H](O)CC(=O)O[C@H]1C)C[C@H](O)[C@H]2C(=O)O [Nystatin (Fungicidin)],7.36
22,CC(C)NCC(O)c1ccccc1Cl (configuration not stated) [Clorprenaline HCl],2.18
23,Cc1cc2c(C(C)C)c(O)c(O)c(C=O)c2c(O)c1-c1c(C)cc2c(C(C)C)c(O)c(O)c(C=O)c2c1O [Gossypol],-1.91 ± 1.8
24,CCCN1CC[C@@H]2c3cc(O)ccc3CC[C@@H]21 (racemic) [cis(+/-)-8-OH-PBZI hydrobromide],9.2
